Measured values as given in the RNAGym collection of RNA variant scans (doi:10.7554/elife.90254).
The source gives no read counts; variants with many changes may rest on few reads.

B1: OR4K15 (parent)
chain: GUUAACGGUCAUAGGCCAUGGAAACUAGGAGCACCAUUUCGCUGCCAGUGAAGAAAUGAACAAAGAAAAUCUGGGCCAGGCAGGCAUCAAAAGAAAUAGUCUUGCGCUCAACCAGAAAGUCUGUAAUCAUUUUAAGGGUA

Variants of: B1
Assay: self-cleavage, relative activity (ratio to wild type); higher = more cleavage; in vitro, sequencing; the parent is a self-cleaving ribozyme

| Variant | self-cleavage |
| --- | --- |
| A56G U87C A95G | 0.75 |
| A60G U100C U122C | 2.47 |
| A60G A129G U131C | 0.96 |
| A59G U72A A110G | 0.12 |
| C61U A91G A126G | 0.85 |
| A59G A82G G83A | 0.26 |
| A56G A94G A96G U103C A129C | 0.47 |
| U57C A67G U139C | 0.91 |
| U57C A94G U97C U100C | 2.12 |
| A56G A116G U132C | 0.33 |
| U57C A94G U120C | 0.45 |
| A60G A110U A135G | 0.75 |
| A56G A117G A125U | 1.97 |
| A56G A98U A134U | 2.47 |
| A60G U108A U131C | 0 |
| A59U A68U A86G | 1.09 |
| A59U A110G A117G | 0.16 |
| A59C U122C A134G | 1.03 |
| A59G A64G A129G | 0.77 |
| A59G A89U U108A | 0.02 |
| A59G A62U A66U A78U | 0.24 |

| Variant | self-cleavage |
| --- | --- |
| U57C A62U A95U U122C | 1.34 |
| U57A A118G U120G | 0.48 |
| A60G A63G C81U A94U | 0.77 |
| U57A A90G U132C | 0.95 |
| A59U A67G G75C A129G | 0.07 |
| A56G U122C A135G | 0.71 |
| U57A A89G U97C U103C A125G U131C | 0.02 |
| A56G A78U U100A | 0.04 |
| A60G A67G A125G A129U | 0.33 |
| A60G U103C U133A | 0.74 |
| A56G A78G A86G | 0.31 |
| A59G A67U U100C | 1.99 |
| A59G A89G U122C | 1.21 |
| A60G A89U A116G U120C U130C G137A | 0.2 |
| A60G A90G A140G | 0.53 |
| A60U A63G A78U A111G U122C U127A | 0 |
| A60G A96G A126G U132C | 0.09 |
| U57C A90G A111U A116U | 0 |
| A56G U57C A63G A126G A129G | 0.51 |
| A56G A82U U102A A116G | 0.18 |
| G58U A66G C88U A94G | 2.12 |

| Variant | self-cleavage |
| --- | --- |
| U57C A60G U122C | 1.01 |
| A59G G106A A110G A111G A135U | 0.01 |
| A59C U97C U102A | 0.62 |
| U57A A78G G84A | 0.19 |
| A62G A82U U102C A125G | 0.08 |
| A56G A90G A126G | 1.63 |
| A60G A68G U131C G137A | 0.66 |
| A59U A67G U100C U122C | 2.57 |
| A62G A63U U108A | 0.01 |
| U57C A92G U108C U131C | 0.01 |
| A56G A90G A92G | 1.53 |
| A60U C61U A63G | 2.17 |
| A59G A116U U120C | 0.12 |
| A59G A62U A67G A116G | 0.57 |
| A60G A96G U139C | 1.96 |
| A62G A68G G79A U132A | 0.12 |
| U57C U72A A126G | 0.15 |
| A56G A78C A91G A129G U130C | 0.04 |
| U57C U100C U132A A135G | 0.59 |
| A56G A86G U132C | 1.08 |
| A60G A63G A69G A116G A129C | 0.16 |

| Variant | self-cleavage |
| --- | --- |
| A62G A67G G115A | 0.01 |
| A59C A68G U103A | 0.53 |
| G58A A62G A66G A69G A90G A125U | 0.98 |
| A60G A86G A96G | 0.65 |
| U57C A67G A110G | 0.06 |
| U57C A92G A96U U102C U131C | 2.15 |
| A59G C105U A118G | 0.03 |
| A59G U108C U127C | 0.01 |
| A59U U87A U97A A111G | 0.03 |
| A56G U57A A91G A98G | 0.29 |
| U57C A63G A69G A82G A114G | 0.05 |
| A59G G137U A140G | 1.02 |
| A56G A90G U108C | 0.01 |
| A60G C85U G119A | 1.06 |
| A59C G75A A90G U103C U127C | 0.02 |
| U57A A89G U108C | 0 |
| A59G C81U A118G A135U | 0.11 |
| A59G A78G U131C | 0.13 |
| A56G C77U A94G A98U | 2.57 |
| A60G U72C U127C | 0.09 |
| A62C A67U A140U | 1.13 |
